Sequences with one replicate were seen in a single cluster, so their values are uncertain.
System: ATP
Test: switch fluorescence ratio, 500 uM ATP over buffer (Cy3 cluster intensity, sum of 5 cycles each) (fold (ratio)); higher = stronger signal-on switching upon ATP binding; sequences stand for … in TCGTCGGCAGCGTCAGATGTGTATAAGAGACAGTTTTTTTTTTTTTTTTTTTTTTTTT…TC
Details: aptamer strand: ATP DNA aptamer (quencher-CACCTGGGGGAGTATTGCGGAGGAAGG + anchor), 100 nM annealed; ATP concentration: 500 uM; one replicate
How it was run: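 After annealing to 100 nM quencher-labelled ATP aptamer, Cy3-labelled switching-strand clusters on a modified Illumina MiSeq flow-cell were imaged in selection buffer. A second image followed after 15 min with 500 uM ATP at 22 °C, and five such buffer/ATP cycles were done, each separated by NaOH stripping and re-annealing. The fluorescence ratio, averaged per switch-domain sequence, is summed target-cycle over summed buffer-cycle Cy3 intensity per cluster, with clusters outside 100-1000 RFU excluded.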
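Also: ATP exposure 15 min at 22 °C before imaging.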

Sequence	switch fluorescence ratio
GCGAATAACT	1.05
AACATTTGTC	0.971
GCATGCCTTG	1.01
CCTTATATAA	0.958
GTAACCGGCG	0.995
GTTAGTAGCG	0.951
AGAACTCAGC	1.06
CAATTACTAC	1.1
TCTTTGCT	0.979
TTGCAACTAC	2.18
GCATGAGGTT	1.05
TAGTTTTTGC	1.02
CATTGTTTGT	1.01
AGTTACTTTT	1.04
TACATACGAG	1.4
TATTTGGGG	0.991
GGTTCGAATT	0.989
ACCTACACTT	1.24
GCGTAGACCC	1.02
TTCATCAGGT	1.04
AGGACTCCAG	1.01
GATGACATTT	1.11
GAGTTCGAGA	1.01

Sequence	switch fluorescence ratio
AGCCAATTC	1.24
CGTACGATTG	1.03
ATCAGTAAGT	1.02
GCGAAAATCA	0.992
TTTGAGCTCG	1.01
ACGAATATGC	1.28
TTGATCCTTG	1
CACGTAGGGT	1.1
AACTTCACGG	1.27
GGCACAACTT	1
AGCGACGAAC	1.46
ATACCGAGAT	1.04
GTCTTGGT	1.04
AGGCCGGAGT	1.02
CACCTTATCT	1.08
CGCTATGGT	1.16
GGCGGTAACA	0.987
CGGTTTCTG	0.991
CCGGTCGCTG	1.05
CAGTAGACAG	1.01
CGTGATATGG	1.02
GATTGCGAAT	1.02
AATGCGTATA	1.02

Sequence	switch fluorescence ratio
ACTTAGAGGT	1.03
CATTTTCCAT	1.01
CCGTCTCGGG	1.01
AACTGACGGT	1.09
GTTCTATATA	0.959
TGTAGTTGAT	1.01
GTTCGGGAG	1.02
CGTAACAAGG	1.01
TATCAGAGG	0.985
GCAGCGAAGG	1.02
GTTAATGATG	1.01
AATCCCGGCG	1.03
TTTTGCCTTT	0.983
TTTTTCCAGA	1.01
CCGTTATATG	1.21
AATCAGGACT	0.976
GAGCGGAGAG	1
ATAATTGCGT	0.994
GTTCTTACAA	0.938
GTACTGGCTT	1
GGCGCCTGTG	1
GGGATACCTG	1
CGAAATTTCC	1.07

Sequence	switch fluorescence ratio
AAGGCAGTGC	1.08
TGAGATGGGC	0.991
AAACTATCAT	0.98
TGGCACTCTC	1.15
GCACGGAGAG	1.07
GATTCGCAGA	1.08
AACAATCGTG	0.973
TCGGCGGAA	1.1
GGGAGTTGCC	0.954
GTAGGTCTGA	0.964
ACTCAGATCT	1.07
AGACACTTTC	1.03
TAGGAATGGA	1.01
CACGGCCTCA	1.04
CTACCTATCA	1.08
ATGGAAGGTG	1.52
CGCTGTTACT	1.87
CTGGATAGTT	0.961
AATCAAGAGA	0.945
CATGCGAGAA	0.997
CGTCTTGCAG	0.99
AAAGCCCTCG	1.01
ATATTGAAGA	0.989

Sequence	switch fluorescence ratio
GCGTGGACTT	1.03
CACGTTTTGG	0.977
ATCAGTCCTC	1.01
CTTCCCGATT	0.992
CTCTCAGGGT	1.13
GGCTGAACAA	1.02
TTAATCCATT	1.02
GCCTAGGTAA	1.01
GACGCCATAT	4
TTAGTACTCT	1.33
TGATAAAACC	1.03
AGGATTCAGA	0.985
ACGAGTCAGG	1.33
ACTCCATTG	1.01
TAGCCGTTAC	1.16
GCTAATGATG	0.991
CGAATCGTC	1.02
GTTGCGGTGG	1.02
TCCGAATATG	1.2
TGGGCCATGG	0.942
GGTATTGGAT	1.02
AGTCTTAAAT	1.01
GCATTACCGC	1.16

Sequence	switch fluorescence ratio
GTGGCTGGTA	1.01
GTTTGGTG	0.997
CACGTATCGC	1.11
AAGCCAGTCC	1.07
CGGGAAACTG	1.02
CATTCGTCAC	1.34
GGGTATAGAC	0.971
GTGTGTGTGT	1.05
GGGAAGTTCC	1.02
TACCTTAGAC	1.14
AGAACTGCAA	1.58
ACTCTTCTCC	2.02
CACAGCGGGA	0.986
AACCCGACAG	1.08
TAGAAAAGCT	0.997
CCACACGCTT	2.6
AAACTCTAGG	0.99
TATACAATGC	1.64
TCACGCGTGC	0.959
AGCGAACTTC	1.04
GATGCATGGG	1.01
AGGAACCGGT	1.04
GCTCATTCGA	1

Sequence	switch fluorescence ratio
GTCAGTATTT	0.992
TGTAATGAGT	0.986
CCCCTTATCA	1.02
TCTCGGAAAT	1.34
GAAAGCAAGG	1.18
GGGACTGCTT	0.971
CTTGACTGGG	1.01
GGAGTAAAGT	1.12
TGACTAGCGT	0.995
ATGGCGAAAG	1.04
TTCTACTCAT	1.02
ATGCGAACAG	0.994
AGTCTTTATT	0.941
ACTTAGACAG	1
TCGTCTCATT	0.97
CACGTCGTAT	1.01
GGAAAGAGCC	0.981
CCTTAGTTTG	1.05
GATAGAGAGC	1.16

Reference: the supplement of paper PMC10126150
